# Measurements from article PMC9911399, “Two distinct binding modes provide the RNA-binding protein RbFox with extraordinary sequence specificity”.
# Positions count from the first letter of the chain named. The list shows a part of the results.
# T1: RBFOX1 RRM RbFoxmut (Fox-RRM*) (Homo sapiens, UniProt Q9NWB1 109-208, R118D;E147R;N151S;E152T)
# T1 sequence: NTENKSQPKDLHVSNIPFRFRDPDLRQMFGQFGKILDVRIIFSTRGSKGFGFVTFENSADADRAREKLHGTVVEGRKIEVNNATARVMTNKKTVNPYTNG
# B1: GUCGGGA (DNA:RNA)
# RNA: GGGAGACCGGAAUUCAGAUUGUCCGUCGGGAUUAAAUCCCGUCGUAGCCACCA
# DNA 1: CAATCTGAATTCCGGTCTCCC
# DNA 2: TGGTGGCTACGACGGGATT
# B2: CUAAGGU (DNA:RNA)
# RNA: B1 RNA with G25C, C27A, G28A, A31U
# DNA 1: CAATCTGAATTCCGGTCTCCC
# DNA 2: TGGTGGCTACGACGGGATT
# B3: UCUAACG (DNA:RNA)
# RNA: GGGAGACCGGAAUUCAGAUUGUCCUCUAACGUUAAAUCCCGUCGUAGCCACCA
# DNA 1: CAATCTGAATTCCGGTCTCCC
# DNA 2: TGGTGGCTACGACGGGATT
# B4: CGUCGCG (DNA:RNA)
# RNA: B3 RNA with U25C, C26G, A28C, A29G
# DNA 1: CAATCTGAATTCCGGTCTCCC
# DNA 2: TGGTGGCTACGACGGGATT
# B5: CAGCUAC (DNA:RNA)
# RNA: GGGAGACCGGAAUUCAGAUUGUCCCAGCUACUUAAAUCCCGUCGUAGCCACCA
# DNA 1: CAATCTGAATTCCGGTCTCCC
# DNA 2: TGGTGGCTACGACGGGATT
# B6: CGCGUAU (DNA:RNA)
# RNA: B5 RNA with A26G, G27C, C28G, C31U
# DNA 1: CAATCTGAATTCCGGTCTCCC
# DNA 2: TGGTGGCTACGACGGGATT
# B7: UGUCGUA (DNA:RNA)
# RNA: B1 RNA with G25U, U26G, C27U, G28C, G30U
# DNA 1: CAATCTGAATTCCGGTCTCCC
# DNA 2: TGGTGGCTACGACGGGATT
# B8: GUGGAUC (DNA:RNA)
# RNA: B1 RNA with C27G, G29A, G30U, A31C
# DNA 1: CAATCTGAATTCCGGTCTCCC
# DNA 2: TGGTGGCTACGACGGGATT
# B9: CCGUCUU (DNA:RNA)
# RNA: B5 RNA with A26C, C28U, U29C, A30U, C31U
# DNA 1: CAATCTGAATTCCGGTCTCCC
# DNA 2: TGGTGGCTACGACGGGATT
# B10: AGUUAUA (DNA:RNA)
# RNA: B3 RNA with U25A, C26G, A28U, C30U, G31A
# DNA 1: CAATCTGAATTCCGGTCTCCC
# DNA 2: TGGTGGCTACGACGGGATT
# B11: UGACAAA (DNA:RNA)
# RNA: B5 RNA with C25U, A26G, G27A, U29A, C31A
# DNA 1: CAATCTGAATTCCGGTCTCCC
# DNA 2: TGGTGGCTACGACGGGATT
# B12: AGUACAU (DNA:RNA)
# RNA: B3 RNA with U25A, C26G, A29C, C30A, G31U
# DNA 1: CAATCTGAATTCCGGTCTCCC
# DNA 2: TGGTGGCTACGACGGGATT
# B13: GGUAAAA (DNA:RNA)
# RNA: B3 RNA with U25G, C26G, C30A, G31A
# DNA 1: CAATCTGAATTCCGGTCTCCC
# DNA 2: TGGTGGCTACGACGGGATT
# B14: AAUUGGC (DNA:RNA)
# RNA: B5 RNA with C25A, G27U, C28U, U29G, A30G
# DNA 1: CAATCTGAATTCCGGTCTCCC
# DNA 2: TGGTGGCTACGACGGGATT
# B15: UUGCAUA (DNA:RNA)
# RNA: B5 RNA with C25U, A26U, U29A, A30U, C31A
# DNA 1: CAATCTGAATTCCGGTCTCCC
# DNA 2: TGGTGGCTACGACGGGATT
# B16: UGCCAAU (DNA:RNA)
# RNA: B5 RNA with C25U, A26G, G27C, U29A, C31U
# DNA 1: CAATCTGAATTCCGGTCTCCC
# DNA 2: TGGTGGCTACGACGGGATT
# B17: GUGCUUC (DNA:RNA)
# RNA: B5 RNA with C25G, A26U, A30U
# DNA 1: CAATCTGAATTCCGGTCTCCC
# DNA 2: TGGTGGCTACGACGGGATT
# B18: GAAAUGG (DNA:RNA)
# RNA: B5 RNA with C25G, G27A, C28A, A30G, C31G
# DNA 1: CAATCTGAATTCCGGTCTCCC
# DNA 2: TGGTGGCTACGACGGGATT
# B19: UCAGGAU (DNA:RNA)
# RNA: B1 RNA with G25U, U26C, C27A, G30A, A31U
# DNA 1: CAATCTGAATTCCGGTCTCCC
# DNA 2: TGGTGGCTACGACGGGATT
# B20: UGGCAUU (DNA:RNA)
# RNA: B5 RNA with C25U, A26G, U29A, A30U, C31U
# DNA 1: CAATCTGAATTCCGGTCTCCC
# DNA 2: TGGTGGCTACGACGGGATT
# B21: UUUAGCA (DNA:RNA)
# RNA: B3 RNA with C26U, A29G, G31A
# DNA 1: CAATCTGAATTCCGGTCTCCC
# DNA 2: TGGTGGCTACGACGGGATT
# B22: UAUUUGG (DNA:RNA)
# RNA: B3 RNA with C26A, A28U, A29U, C30G
# DNA 1: CAATCTGAATTCCGGTCTCCC
# DNA 2: TGGTGGCTACGACGGGATT
# B23: ACGGCAG (DNA:RNA)
# RNA: B5 RNA with C25A, A26C, C28G, U29C, C31G
# DNA 1: CAATCTGAATTCCGGTCTCCC
# DNA 2: TGGTGGCTACGACGGGATT
# B24: ACCCGGC (DNA:RNA)
# RNA: B1 RNA with G25A, U26C, G28C, A31C
# DNA 1: CAATCTGAATTCCGGTCTCCC
# DNA 2: TGGTGGCTACGACGGGATT
# B25: AUAAGCU (DNA:RNA)
# RNA: B1 RNA with G25A, C27A, G28A, G30C, A31U
# DNA 1: CAATCTGAATTCCGGTCTCCC
# DNA 2: TGGTGGCTACGACGGGATT
# B26: UGCUAGC (DNA:RNA)
# RNA: B1 RNA with G25U, U26G, G28U, G29A, A31C
# DNA 1: CAATCTGAATTCCGGTCTCCC
# DNA 2: TGGTGGCTACGACGGGATT
# B27: GCUACUA (DNA:RNA)
# RNA: B3 RNA with U25G, A29C, C30U, G31A
# DNA 1: CAATCTGAATTCCGGTCTCCC
# DNA 2: TGGTGGCTACGACGGGATT
# B28: UUAAGCA (DNA:RNA)
# RNA: B1 RNA with G25U, C27A, G28A, G30C
# DNA 1: CAATCTGAATTCCGGTCTCCC
# DNA 2: TGGTGGCTACGACGGGATT
# B29: CACUACC (DNA:RNA)
# RNA: B5 RNA with G27C, C28U, U29A, A30C
# DNA 1: CAATCTGAATTCCGGTCTCCC
# DNA 2: TGGTGGCTACGACGGGATT
# B30: AGUGGUC (DNA:RNA)
# RNA: B1 RNA with G25A, U26G, C27U, G30U, A31C
# DNA 1: CAATCTGAATTCCGGTCTCCC
# DNA 2: TGGTGGCTACGACGGGATT
# B31: CAUAGCA (DNA:RNA)
# RNA: B3 RNA with U25C, C26A, A29G, G31A
# DNA 1: CAATCTGAATTCCGGTCTCCC
# DNA 2: TGGTGGCTACGACGGGATT
# Molecular target: T1, RBFOX1 RRM RbFoxmut (Fox-RRM*)
# Assay: EMSA; HiTS-Eq, 1 nM pool, 10 min; buffer printed only for the single-RNA assays: 10 mM Tris pH 7.5, 150 mM NaCl, 3.4 mM EDTA, 0.001% NP-40, 30 C
# Settings: tags: His6 N-terminal (pET28a); label: 5' 32P
# Summary of the method: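 Purified wild-type or mutant RbFox RRM at increasing concentrations was equilibrated with 1 nM of 5′-radiolabelled RNA carrying 7 randomized nucleotides for 10 min in 50 µL. Unbound RNA was separated by 8% native PAGE and sequenced. Relative association constants came from read-count changes of each RNA species compared with the control reaction, normalised to the cognate motif.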
row,Binder,binding signal
1,B1,0.112 KA relative to UGCAUGU
2,B2,0.0965 KA relative to UGCAUGU
3,B3,0.107 KA relative to UGCAUGU
4,B4,0.116 KA relative to UGCAUGU
5,B5,0.108 KA relative to UGCAUGU
6,B6,0.121 KA relative to UGCAUGU
7,B7,0.13 KA relative to UGCAUGU
8,B8,0.357 KA relative to UGCAUGU
9,B9,0.0819 KA relative to UGCAUGU
10,B10,0.117 KA relative to UGCAUGU
11,B11,0.0618 KA relative to UGCAUGU
12,B12,0.0854 KA relative to UGCAUGU
13,B13,0.0612 KA relative to UGCAUGU
14,B14,0.114 KA relative to UGCAUGU
15,B15,0.23 KA relative to UGCAUGU
16,B16,0.0611 KA relative to UGCAUGU

row,Binder,binding signal
1,B17,0.15 KA relative to UGCAUGU
2,B18,0.0639 KA relative to UGCAUGU
3,B19,0.104 KA relative to UGCAUGU
4,B20,0.1 KA relative to UGCAUGU
5,B21,0.12 KA relative to UGCAUGU
6,B22,0.102 KA relative to UGCAUGU
7,B23,0.102 KA relative to UGCAUGU
8,B24,0.0777 KA relative to UGCAUGU
9,B25,0.0966 KA relative to UGCAUGU
10,B26,0.139 KA relative to UGCAUGU
11,B27,0.114 KA relative to UGCAUGU
12,B28,0.137 KA relative to UGCAUGU
13,B29,0.112 KA relative to UGCAUGU
14,B30,0.179 KA relative to UGCAUGU
15,B31,0.143 KA relative to UGCAUGU
